Assay results: the supplement of paper PMC3334620
Over roughly 33,000 sequences, “E-score (-0.5 to 0.5)” has its median near -0.041; the highest 2% begin near 0.37. The list shows a part of the results.

Target: T1, Ecm22 (UniProt Q05958)
T1 sequence: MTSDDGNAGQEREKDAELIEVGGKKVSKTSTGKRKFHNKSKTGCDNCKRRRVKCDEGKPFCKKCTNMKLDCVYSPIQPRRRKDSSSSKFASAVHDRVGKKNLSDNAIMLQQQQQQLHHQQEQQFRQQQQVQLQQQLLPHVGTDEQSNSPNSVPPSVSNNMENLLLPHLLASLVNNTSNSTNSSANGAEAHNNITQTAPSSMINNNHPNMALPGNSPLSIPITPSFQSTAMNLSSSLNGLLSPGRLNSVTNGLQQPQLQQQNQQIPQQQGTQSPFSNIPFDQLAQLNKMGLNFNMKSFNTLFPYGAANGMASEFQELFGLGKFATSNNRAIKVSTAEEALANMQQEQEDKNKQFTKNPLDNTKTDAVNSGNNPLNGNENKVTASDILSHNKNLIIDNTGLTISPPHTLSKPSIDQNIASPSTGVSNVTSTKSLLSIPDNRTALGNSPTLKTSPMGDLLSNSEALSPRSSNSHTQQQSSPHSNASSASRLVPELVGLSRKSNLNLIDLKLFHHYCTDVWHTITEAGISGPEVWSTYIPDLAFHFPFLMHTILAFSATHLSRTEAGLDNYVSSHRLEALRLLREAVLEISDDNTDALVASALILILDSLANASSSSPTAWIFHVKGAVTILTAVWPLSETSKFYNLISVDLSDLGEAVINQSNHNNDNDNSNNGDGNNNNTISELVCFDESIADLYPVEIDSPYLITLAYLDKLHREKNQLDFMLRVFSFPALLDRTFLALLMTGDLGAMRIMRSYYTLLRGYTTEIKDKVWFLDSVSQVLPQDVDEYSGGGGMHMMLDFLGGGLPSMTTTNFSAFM
Assay: PBM E-score (8-mer binding enrichment) (E-score (-0.5 to 0.5)); higher = stronger / more preferred TF binding; most listed sequences are background and not binding sites
Settings: protein concentration: 200 nM; construct: GST-full length
Procedure, shortened: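 Bound GST-tagged yeast transcription factors, applied at about 100-200 nM to double-stranded universal all-10-mer Agilent arrays, were detected with fluorescent anti-GST. Scans were normalised with masliner. A modified Wilcoxon-Mann-Whitney statistic, the E-score, was assigned to each ungapped eight-base word pooled with its reverse complement by the Universal PBM Analysis Suite.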

Sequence | PBM E-score
AAGAGCAT | -0.0744
ACGGGACC | 0.0546
CTCGAGGA | -0.123
ATGGCAAG | -0.146
AGTATCAG | -0.0962
AAATGTTC | 0.0504
AACCCATG | -0.23
ATTCCGCA | -0.0441
CTTTGAGA | -0.0843
CCCCCTTC | -0.269
CGTTACGC | 0.256
TGCCACAA | -0.147
CAACATTC | -0.101
CTAAAAGC | -0.00248
CGTTCAAC | 0.377
CTTGCTGC | -0.14
GATGCAAC | -0.127
CTAGATCA | -0.0351
ACCGTGAG | -0.184
TTAAGGAA | -0.016
ACACGAAG | 0.249
AGGAAAGG | -0.33
TCGCCTAA | 0.0931
CCTAACAG | -0.0916
ACGTTATG | 0.163

Sequence | PBM E-score
GCTTATTA | 0.0326
CATGGCTA | -0.0322
AACTCGAA | -0.0361
AGCTCATC | -0.0135
GACGGGCA | -0.058
CGCAGTAC | 0.174
GATTCCGA | -0.0306
AAACTAGT | -0.00576
CGCTCTTC | 0.202
AAAGATTA | 0.0079
ATGAGCGC | 0.0506
GGACAGAA | -0.00623
CATCCCGC | -0.131
ACTCGCCG | 0.144
GTACACCA | 0.0324
CAGACTCA | -0.175
ATACGAGG | 0.488
AGCCGCGA | 0.0625
GGACGATA | -0.213
CGTCGCGC | 0.0932
ACCCAGCA | -0.0699
ATCATCTA | -0.0624
ATCCTAAT | 0.0012
CCTTGTTC | 0.0241
CACCCAGA | -0.29

Sequence | PBM E-score
ATAGTGAC | 0.0492
CATTGGCG | -0.239
GCAGCGAA | 0.229
ATTCTAGG | 0.0128
CTACAGAC | -0.0549
AGGAACAG | -0.257
GATGTGCA | -0.0786
ATCAAATA | 0.0985
ATGTTTTC | 0.136
ATGACGTA | 0.105
ATGGTTGC | -0.0601
CAAGAACG | 0.337
AGCTCACG | -0.104
ACAAAGCA | -0.0601
ACTTAACA | -0.121
CGCTACAC | 0.00181
ATACCTGC | 0.0396
AGCTAATG | -0.0961
CCATTCAA | 0.0326
ATCGTAAT | 0.263
CGAGACAA | 0.133
AATGTGTA | -0.0375
CACTATAC | 0.2
GGAGACAC | -0.226
AGGGACGG | -0.256

Sequence | PBM E-score
CGCCGCGC | -0.0266
CAGAAGCC | -0.0648
TATCGCAA | -0.0102
GAGTGAAC | 0.117
ATGCATCA | -0.00851
AAACGCCC | 0.121
CACAACTC | 0.144
CAAACAAG | -0.135
GCATCTCA | 0.00225
ATACAAGG | -0.14
CTTTATCA | -0.178
GCAGCGCA | -0.0703
ACCGGCAA | -0.0122
AACAGCCG | -0.0151
CAGATGAA | -0.11
GACGACAC | -0.0609
ACAGCATA | 0.0976
AGTTTACC | -0.0268
CCTAGGCC | -0.419
AGATTCAG | -0.0218
CAAAGGGG | -0.198
CGGAGTGA | 0.0314
AGCCAGCG | -0.0343
ACTCTCCT | -0.191
CAAAGATC | 0.0168

Sequence | PBM E-score
AATGTCAG | -0.178
ACTCTCTA | -0.197
GCCGACGC | -0.0829
TCCAGAAA | -0.153
CAGTTACG | 0.0991
CTAAGTGA | 0.0102
ATGCTATC | 0.0455
ACTGTGAA | 0.1
ACTCGATC | 0.0469
GGTGAGAA | -0.212
CACTTGCA | -0.0874
CAAGGCGA | -0.111
AGGAAACG | 0.281
CCCGTAAC | 0.189
TGAGGCAA | 0.0208
ACTCTATG | -0.0729
ACGGTCAG | -0.0484
CTCCGGAG | 0.0177
ACATTGAG | -0.128
GACTTAGA | 0.0336
CAACAAAA | 0.0263
TCCGCGGA | 0.00602
TTACATAA | 0.0922
CACCCTTC | -0.0922
CAGAGCGA | 0.0945

Sequence | PBM E-score
GTGGTTTA | -0.201
TTATTCAA | 0.101
AGGGGCGA | -0.302
GCGCGCCA | 0.1
ACATCTAA | -0.0724
CCTCGCAA | 0.185
AACCCTCG | 0.0728
ATGATAGG | -0.189
AGTCAAAT | -0.259
AGGGTCCA | -0.218
GCATACGC | 0.199
AGCAGTAA | -0.0493
CGCTTCAC | 0.0136
GGGGAACA | -0.0676
ATACCCGA | 0.277
AGAGTAGG | -0.156
ACTCTTGC | -0.216
GAATTGTC | -0.0741
CGACCCAA | 0.241
ATCTGAGG | -0.215
ACGTTCTC | 0.107
AGCAGAGG | -0.301
CTCCCGCC | -0.234
AGTATTTC | 0.0557
TATGTGGA | -0.076

Sequence | PBM E-score
ATGACCGG | -0.136
GATTCTCC | -0.12
CCCCTGAC | -0.17
AAACTCGT | 0.34
CCCTTCAA | -0.254
ACTCGAGC | -0.0116
AAATCGGT | 0.0646
TAGGAGAA | -0.0999
AACGATCA | 0.346
AAACTGAG | -0.0707
CAGTTAGC | -0.284
GTGGCCGA | -0.194
AGCAGGAC | -0.0126
GTGGATTA | -0.0747
CACTCAGA | -0.166
ATAAGCGG | -0.0944
AATCTGGG | -0.133
GCACCCAC | 0.104
AAGGGGAA | -0.293
AGCTAGGA | -0.228
AACAGACT | -0.1
ACTAGGAT | 0.03
CCCGTACC | 0.446
AGTAGAAG | -0.0885
AAGACAGT | -0.27

Sequence | PBM E-score
ACAGGGGC | -0.0848
CAGTGGTA | -0.12
CCCCGAAC | -0.0375
AAAATGAG | -0.189
CACTGTGC | -0.121
CACAGGGG | -0.0261
AATGACGG | -0.12
TGCGAACA | 0.204
ATCGCTAG | 0.0184
GGGGAAGA | -0.224
ACCATCCC | -0.168
ACTCCAAA | -0.0508
CTTCCCTA | -0.364
AGTTGCCA | -0.222
CCTGTCGA | -0.0635
CTGGTAAC | 0.0674
AGCCGCTG | -0.203
ACCCGTGA | -0.0665
CACCTTCA | -0.329
ACCACACC | -0.158
CTGCTAAC | -0.152
AAGGAGGT | -0.157
GGGACCCC | -0.23
CTCCTCGC | 0.126
AGCCGCTC | 0.0341

Sequence | PBM E-score
ATATGCGG | 0.162
CAAGTACC | 0.12
ACGGAGTG | 0.279
AGCGCCAT | -0.152
AACTCTAG | -0.062
AGATCCCT | -0.0177
AGGTCGGC | -0.138
AGCGGGGC | 0.0632
ACCATACG | 0.364
AGCGAATG | 0.181
AAGGCCTG | -0.215
GGTTTACA | -0.0503
AGTAACGC | -0.129
AAACATGC | -0.0498
ATTAGCTG | 0.00294
GCTTCAGA | -0.236
ATCCAAAA | -0.258
CTCATGAG | -0.171
GAACTAGC | 0.0254
